Where “and” joins values, the source holds several entries; their conditions need not be identical. Equal entries are not always repeated.
Columns and labels:
Assay type in all cases: in vivo
[1] = system: Transgenic T2 Corn plants harbouring PPO inhibitor tolerance trait and J553 non transgenic; assay: Corn Trial, post spray, injury score 14 DAT
Procedure: Immature embryos are transformed according to the procedure outlined in Peng et al. (WO2006/136596). Plants are tested for the presence of the T-DNA by Taqman analysis with the target being the nos terminator which is present in all constructs. Healthy looking plants are sent to the greenhouse for hardening and subsequent spray testing. The plants are individually transplanted into MetroMix 360 soil in 4″ pots. Once in the greenhouse (day/night cycle of 27° C./21° C. with 14 hour day length supported by 600 W high pressure sodium lights), they are allowed to grow for 14 days. TO or T1 plants are sprayed with a treatment of the uracilpyridines as disclosed SUPRA and photosynthesis inhibitor diuron as negative control. Herbicide injury evaluations are taken at 7, 14 and 21 days after treatment. Herbicide injury evaluations are taken 2, 7, 14 and 21 days post-spray to look for injury to new growth points and overall plant health. The top survivors are transplanted into gallon pots filled with MetroMix 360 for seed production.
(§1) Transgenic T2 Corn plants harbouring PPO inhibitor tolerance trait, were sprayed post with the indicated amount of uracilpyridine+1% (v/v) MSO. Evaluation performed 14 Days After Treatment (DAT) and shown as injury (0-9) relative to non-transgenic treated plants.
Injury Scale: 0-9, 0=no injury, 9=maximum injury. Note: segregating lines.

[2] = system: Transgenic T2 or T3 Soybean plants harbouring PPO inhibitor tolerance trait; assay: Soybean Trial, post spray, injury score 14 DAT
Procedure: (§2) Soybean cv Jake is transformed as previously described by Siminszky et al., Phytochem Rev. 5:445-458 (2006). After regeneration, transformants are transplanted to soil in small pots, placed in growth chambers (16 hr day/8 hr night; 25° C. day/23° C. night; 65% relative humidity; 130-150 microE m-2 s-1) and subsequently tested for the presence of the T-DNA via Taqman analysis. After a few weeks, healthy, transgenic positive, single copy events are transplanted to larger pots and allowed to grow in the growth chamber. An optimal shoot for cutting is about 3-4 inches tall, with at least two nodes present. Each cutting is taken from the original transformant (mother plant) and dipped into rooting hormone powder (indole-3-butyric acid, IBA). The cutting is then placed in oasis wedges inside a bio-dome. The mother plant is taken to maturity in the greenhouse and harvested for seed. Wild type cuttings are also taken simultaneously to serve as negative controls. The cuttings are kept in the bio-dome for 5-7 days and then transplanted to 3 inch pots and then acclimated in the growth chamber for two more days. Subsequently, the cuttings are transferred to the greenhouse, acclimated for approximately 4 days prior to spray. T0 or 2-week old T1 plants are sprayed with a treatment of the uracilpyridines as disclosed SUPRA and photosynthesis inhibitor diuron as negative control. Herbicide injury evaluations are taken at 2, 7, 14 and 21 days after treatment.
as §1, with “or T3 Soybean” for “Corn”, “plants. Injury Scale: 0-9, 0=no imjury, 9=maximum injury. Note: segregating lines.” for “plants.”

[3] = system: Transgenic T4 Soybean plants harbouring PPO inhibitor tolerance trait; assay: T4 Soybean post spray, injury score 7 DAT
Procedure: as §2
as §1, with “T4 Soybean” for “T2 Corn”, “7” for “14”, “plants. Injury Scale: 0-9, 0=no imjury, 9=maximum injury.” for “plants.”

[4] = corn J553 non transgenic, 25 g/ha + 1% MSO
[5] = corn J553 non transgenic, 50 g/ha + 1% MSO
[6] = corn J553 non transgenic, 100 g/ha + 1% MSO
[7] = Jake non transgenic, 25 g/ha + 1% (v/v) MSO
[8] = Jake non transgenic, 50 g/ha + 1% (v/v) MSO
[9] = Jake non transgenic, 100 g/ha + 1% (v/v) MSO
[10] = Jake non-transgenic, 25 g/ha + 1% (v/v) MSO
[11] = Jake non-transgenic, 50 g/ha + 1% (v/v) MSO
[12] = Jake non-transgenic, 100 g/ha + 1% (v/v) MSO
[13] = L397Q + F420M Event 5, 25 g/ha + 1% (v/v) MSO
[14] = L397Q + F420M Event 5, 50 g/ha + 1% (v/v) MSO
[15] = L397Q + F420M Event 5, 100 g/ha + 1% (v/v) MSO
[16] = R128A + F420I Event 2, 50 g/ha + 1% (v/v) MSO
[17] = R128A + F420I Event 2, 100 g/ha + 1% (v/v) MSO
[18] = R128A + F420L Event 1, 100 g/ha + 1% (v/v) MSO
[19] = R128A + F420L Event 1, 50 g/ha + 1% (v/v) MSO
[20] = L397E + F420V Event 3, 50 g/ha + 1% (v/v) MSO

| Structure (SMILES) | injury (0-9) [1, 4] | injury (0-9) [1, 5] | injury (0-9) [1, 6] | injury (0-9) [2, 7] | injury (0-9) [2, 8] | injury (0-9) [2, 9] | injury (0-9) [3, 10] | injury (0-9) [3, 11] | injury (0-9) [3, 12] | injury (0-9) [3, 13] | injury (0-9) [3, 14] | injury (0-9) [3, 15] | injury (0-9) [3, 16] | injury (0-9) [3, 17] | injury (0-9) [3, 18] | injury (0-9) [3, 19] | injury (0-9) [3, 20] | other results |
| --- | --- | --- | --- | --- | --- | --- | --- | --- | --- | --- | --- | --- | --- | --- | --- | --- | --- | --- |
| CCOC(=O)COc1ncccc1Oc1nc(-n2c(=O)cc(C(F)(F)F)n(C)c2=O)c(F)cc1Cl [Uracilpyridine 2, ethyl 2-[[3-[[3-chloro-5-fluoro-6-[3-methyl-2,6-dioxo-4-(trifluoromethyl)pyrimidin-1-yl]-2-pyridyl]oxy]-2-pyridyl]oxy]acetate] | 9 (Plant is dead.) | 9 (Plant is dead.) | 9 (Plant is dead.) | 9 (Plant is dead.) | 9 (Plant is dead.) | 9 (Plant is dead.) |  |  |  |  |  |  |  |  |  |  |  | injury (0-9) ([1]; corn R128A, F420L Event 2, 50 g/ha + 1% MSO): 1 (Minimal injury, only a few patches of leaf injury or chlorosis.); injury (0-9) ([1]; corn R128A, F420L Event 2, 100 g/ha + 1% MSO): 1 (Minimal injury, only a few patches of leaf injury or chlorosis.); injury (0-9) ([2]; L397Q, F420M Event 3, 25 g/ha + 1% (v/v) MSO): 9 (Plant is dead.); injury (0-9) ([2]; L397Q, F420M Event 3, 100 g/ha + 1% (v/v) MSO): 1 (Minimal injury, only a few patches of leaf injury or chlorosis.) |
| CCOC(=O)COc1ccccc1Oc1nc(-n2c(=O)cc(C(F)(F)F)n(C)c2=O)c(F)cc1Cl [Uracilpyridine 4, ethyl 2-[2-[[3-chloro-5-fluoro-6-[3-methyl-2,6-dioxo-4-(trifluoromethyl)pyrimidin-1-yl]-2-pyridyl]oxy]phenoxy]acetate] | 9 (Plant is dead.) | 9 (Plant is dead.) | 9 (Plant is dead.) | 9 (Plant is dead.) | 9 (Plant is dead.) | 9 (Plant is dead.) |  |  |  |  |  |  |  |  |  |  |  | injury (0-9) ([1]; corn R128A, F420I Event 1, 25 g/ha + 1% MSO, individual plants, segregating lines): 0 (No Injury); injury (0-9) ([1]; corn R128A, F420L Event 2, 25 g/ha + 1% MSO): 0 (No Injury); injury (0-9) ([2]; L397E, F420M Event 2, 100 g/ha + 1% (v/v) MSO): 1 (Minimal injury, only a few patches of leaf injury or chlorosis.); injury (0-9) ([2]; L397Q, F420M Event 3, 50 g/ha + 1% (v/v) MSO): 9 (Plant is dead.) |
| Cn1c(C(F)(F)F)cc(=O)n(-c2nc(Oc3ccccc3OCC(=O)NS(C)(=O)=O)c(Cl)cc2F)c1=O [Uracilpyridine 10, 2-[2-[[3-chloro-5-fluoro-6-[3-methyl-2,6-dioxo-4-(trifluoromethyl)pyrimidin-1-yl]-2-pyridyl]oxy]phenoxy]-N-methylsulfonyl-acetamide] |  |  |  |  |  |  | 9 (Plant is dead.) | 9 (Plant is dead.) | 9 (Plant is dead.) | 3 and 5 | 4 | 4 and 5 | 1 (Minimal injury, only a few patches of leaf injury or chlorosis.) and 2 | 2 and 3 | 2 and 1 (Minimal injury, only a few patches of leaf injury or chlorosis.) |  |  |  |
| Cn1c(C(F)(F)F)cc(=O)n(-c2nc(Oc3cccnc3OCC(=O)NS(C)(=O)=O)c(Cl)cc2F)c1=O [Uracilpyridine 20, 2-[[3-[[3-chloro-5-fluoro-6-[3-methyl-2,6-dioxo-4-(trifluoromethyl)pyrimidin-1-yl]-2-pyridyl]oxy]-2-pyridyl]oxy]-N-methylsulfonyl-acetamide] |  |  |  |  |  |  | 9 (Plant is dead.) | 9 (Plant is dead.) | 9 (Plant is dead.) | 4 and 3 | 3 and 4 | 4 and 7 | 3 and 2 | 4 | 3 and 4 and 5 | 3 and 2 and 1 (Minimal injury, only a few patches of leaf injury or chlorosis.) |  | injury (0-9) ([3]; R128A + F420I Event 2, 25 g/ha + 1% (v/v) MSO): 2 and 1 (Minimal injury, only a few patches of leaf injury or chlorosis.) |
| COC(=O)COc1ccccc1Oc1nc(-n2c(=O)cc(C(F)(F)F)n(C)c2=O)c(F)cc1Cl [Uracilpyridine 21, methyl 2-[2-[[3-chloro-5-fluoro-6-[3-methyl-2,6-dioxo-4-(trifluoromethyl)pyrimidin-1-yl]-2-pyridyl]oxy]phenoxy]acetate] |  |  |  |  |  |  | 9 (Plant is dead.) | 9 (Plant is dead.) | 9 (Plant is dead.) | 3 and 2 | 3 | 3 | 2 and 1 (Minimal injury, only a few patches of leaf injury or chlorosis.) | 3 and 2 |  | 1 (Minimal injury, only a few patches of leaf injury or chlorosis.) and 2 | 0 (No Injury) | injury (0-9) ([3]; L397E + F420V Event 3, 25 g/ha + 1% (v/v) MSO): 0 (No Injury) |
| CCOC(=O)COc1ccccc1Oc1nc(-n2c(=O)cc(C(F)(F)F)n(C)c2=O)c(F)cc1Br [Uracilpyridine 22, ethyl 2-[2-[[3-bromo-5-fluoro-6-[3-methyl-2,6-dioxo-4-(trifluoromethyl)pyrimidin-1-yl]-2-pyridyl]oxy]phenoxy]acetate] |  |  |  |  |  |  | 9 (Plant is dead.) | 9 (Plant is dead.) | 9 (Plant is dead.) | 1 (Minimal injury, only a few patches of leaf injury or chlorosis.) and 2 | 3 and 2 and 1 (Minimal injury, only a few patches of leaf injury or chlorosis.) | 4 |  | 2 and 3 and 1 (Minimal injury, only a few patches of leaf injury or chlorosis.) | 1 (Minimal injury, only a few patches of leaf injury or chlorosis.) and 2 | 1 (Minimal injury, only a few patches of leaf injury or chlorosis.) and 2 | 0 (No Injury) |  |

Source: US12123010B2, “Plants having increased tolerance to herbicides” (BASF SE, priority 2017, dated 2024)
